Experimental data reported in the supplement of paper PMC11876631.
± gives the standard deviation of the averaged measurements. Laboratory Escherichia coli strains with one amino-acid change in an essential protein, pooled on minimal glucose agar with carbenicillin or gentamicin at twice the control MIC (plus kanamycin and chloramphenicol for the plasmids), 48 h. Fold change of barcode share against drug-free plates; higher = less susceptible. Active = above 20 in both replicates (the paper's putatively resistant). '<' = one read or none on drug, '>' = one read or none on a drug-free plate. Shares are relative, so most strains fall below 1 when a few take over. Listed are strains with at least 15 reads on both drug-free plates, and hits; most hits rest on fewer reference reads. Replicate rank correlation about 0.5. Edits are read from barcodes.

B1: pyrE V17Q (protein)
chain: MKPYQRQFIEFALSKQQLKFGEFTLKSGRKSPYFFNAGLFNTGRDLALLGRFYAEALVDSGIEFDLLFGPAYKGIPIATTTAVALAEHHDLDLPYCFNRKEAKDHGEGGNLVGSALQGRVMLVDDVITAGTAIRESMEIIQANGATLAGVLISLDRQERGRGEISAIQEVERDYNCKVISIITLKDLIAYLEEKPEMAEHLAAVKAYREEFGV
B2: pyrE L187A (protein)
chain: MKPYQRQFIEFALSKQVLKFGEFTLKSGRKSPYFFNAGLFNTGRDLALLGRFYAEALVDSGIEFDLLFGPAYKGIPIATTTAVALAEHHDLDLPYCFNRKEAKDHGEGGNLVGSALQGRVMLVDDVITAGTAIRESMEIIQANGATLAGVLISLDRQERGRGEISAIQEVERDYNCKVISIITLKDAIAYLEEKPEMAEHLAAVKAYREEFGV
B3: pyrE L187Q (protein)
chain: MKPYQRQFIEFALSKQVLKFGEFTLKSGRKSPYFFNAGLFNTGRDLALLGRFYAEALVDSGIEFDLLFGPAYKGIPIATTTAVALAEHHDLDLPYCFNRKEAKDHGEGGNLVGSALQGRVMLVDDVITAGTAIRESMEIIQANGATLAGVLISLDRQERGRGEISAIQEVERDYNCKVISIITLKDQIAYLEEKPEMAEHLAAVKAYREEFGV
B4: pyrE L187W (protein)
chain: MKPYQRQFIEFALSKQVLKFGEFTLKSGRKSPYFFNAGLFNTGRDLALLGRFYAEALVDSGIEFDLLFGPAYKGIPIATTTAVALAEHHDLDLPYCFNRKEAKDHGEGGNLVGSALQGRVMLVDDVITAGTAIRESMEIIQANGATLAGVLISLDRQERGRGEISAIQEVERDYNCKVISIITLKDWIAYLEEKPEMAEHLAAVKAYREEFGV
B5: pyrE L49A (protein)
chain: MKPYQRQFIEFALSKQVLKFGEFTLKSGRKSPYFFNAGLFNTGRDLALAGRFYAEALVDSGIEFDLLFGPAYKGIPIATTTAVALAEHHDLDLPYCFNRKEAKDHGEGGNLVGSALQGRVMLVDDVITAGTAIRESMEIIQANGATLAGVLISLDRQERGRGEISAIQEVERDYNCKVISIITLKDLIAYLEEKPEMAEHLAAVKAYREEFGV
B6: pyrE L49Q (protein)
chain: MKPYQRQFIEFALSKQVLKFGEFTLKSGRKSPYFFNAGLFNTGRDLALQGRFYAEALVDSGIEFDLLFGPAYKGIPIATTTAVALAEHHDLDLPYCFNRKEAKDHGEGGNLVGSALQGRVMLVDDVITAGTAIRESMEIIQANGATLAGVLISLDRQERGRGEISAIQEVERDYNCKVISIITLKDLIAYLEEKPEMAEHLAAVKAYREEFGV
B7: pyrE I181A (protein)
chain: MKPYQRQFIEFALSKQVLKFGEFTLKSGRKSPYFFNAGLFNTGRDLALLGRFYAEALVDSGIEFDLLFGPAYKGIPIATTTAVALAEHHDLDLPYCFNRKEAKDHGEGGNLVGSALQGRVMLVDDVITAGTAIRESMEIIQANGATLAGVLISLDRQERGRGEISAIQEVERDYNCKVISAITLKDLIAYLEEKPEMAEHLAAVKAYREEFGV
B8: pyrE V123D (protein)
chain: MKPYQRQFIEFALSKQVLKFGEFTLKSGRKSPYFFNAGLFNTGRDLALLGRFYAEALVDSGIEFDLLFGPAYKGIPIATTTAVALAEHHDLDLPYCFNRKEAKDHGEGGNLVGSALQGRVMLDDDVITAGTAIRESMEIIQANGATLAGVLISLDRQERGRGEISAIQEVERDYNCKVISIITLKDLIAYLEEKPEMAEHLAAVKAYREEFGV
B9: purK L7W (protein)
chain: MKQVCVWGNGQLGRMLRQAGEPLGIAVWPVGLDAEPAAVPFQQSVITAEIERWPETALTRELARHPAFVNRDVFPIIADRLTQKQLFDKLHLPTAPWQLLAERSEWPAVFDRLGELAIVKRRTGGYDGRGQWRLRANETEQLPAECYGECIVEQGINFSGEVSLVGARGFDGSTVFYPLTHNLHQDGILRTSVAFPQANAQQQAQAEEMLSAIMQELGYVGVMAMECFVTPQGLLINELAPRVHNSGHWTQNGASISQFELHLRAITDLPLPQPVVNNPSVMINLIGSDVNYDWLKLPLVHLHWYDKEVRPGRKVGHLNLTDSDTSRLTATLEALIPLLPPEYASGVIWAQSKFG
B10: pyrD I71A (protein)
chain: MYYPFVRKALFQLDPERAHEFTFQQLRRITGTPFEALVRQKVPAKPVNCMGLTFKNPLGLAAGLDKDGECADALGAMGFGSIEIGTVTPRPQPGNDKPRLFRLVDAEGLINRMGFNNLGVDNLVENVKKAHYDGVLGINIGKNKDTPVEQGKDDYLICMEKIYAYAGYIAINISSPNTPGLRTLQYGEALDDLLTAIKNKQNDLQAMHHKYVPIAVKIAPDLSEEELIQVADSLVRHNIDGVIATNTTLDRSLVQGMKNCDQTGGLSGRPLQLKSTEIIRRLSLELNGRLPIIGVGGIDSVIAAREKIAAGASLVQIYSGFIFKGPPLIKEIVTHI
B11: pyrD I71P (protein)
chain: MYYPFVRKALFQLDPERAHEFTFQQLRRITGTPFEALVRQKVPAKPVNCMGLTFKNPLGLAAGLDKDGECPDALGAMGFGSIEIGTVTPRPQPGNDKPRLFRLVDAEGLINRMGFNNLGVDNLVENVKKAHYDGVLGINIGKNKDTPVEQGKDDYLICMEKIYAYAGYIAINISSPNTPGLRTLQYGEALDDLLTAIKNKQNDLQAMHHKYVPIAVKIAPDLSEEELIQVADSLVRHNIDGVIATNTTLDRSLVQGMKNCDQTGGLSGRPLQLKSTEIIRRLSLELNGRLPIIGVGGIDSVIAAREKIAAGASLVQIYSGFIFKGPPLIKEIVTHI
B12: pyrD I71Q (protein)
chain: MYYPFVRKALFQLDPERAHEFTFQQLRRITGTPFEALVRQKVPAKPVNCMGLTFKNPLGLAAGLDKDGECQDALGAMGFGSIEIGTVTPRPQPGNDKPRLFRLVDAEGLINRMGFNNLGVDNLVENVKKAHYDGVLGINIGKNKDTPVEQGKDDYLICMEKIYAYAGYIAINISSPNTPGLRTLQYGEALDDLLTAIKNKQNDLQAMHHKYVPIAVKIAPDLSEEELIQVADSLVRHNIDGVIATNTTLDRSLVQGMKNCDQTGGLSGRPLQLKSTEIIRRLSLELNGRLPIIGVGGIDSVIAAREKIAAGASLVQIYSGFIFKGPPLIKEIVTHI
B13: pyrD L227Q (protein)
chain: MYYPFVRKALFQLDPERAHEFTFQQLRRITGTPFEALVRQKVPAKPVNCMGLTFKNPLGLAAGLDKDGECIDALGAMGFGSIEIGTVTPRPQPGNDKPRLFRLVDAEGLINRMGFNNLGVDNLVENVKKAHYDGVLGINIGKNKDTPVEQGKDDYLICMEKIYAYAGYIAINISSPNTPGLRTLQYGEALDDLLTAIKNKQNDLQAMHHKYVPIAVKIAPDLSEEEQIQVADSLVRHNIDGVIATNTTLDRSLVQGMKNCDQTGGLSGRPLQLKSTEIIRRLSLELNGRLPIIGVGGIDSVIAAREKIAAGASLVQIYSGFIFKGPPLIKEIVTHI
B14: pyrD I71W (protein)
chain: MYYPFVRKALFQLDPERAHEFTFQQLRRITGTPFEALVRQKVPAKPVNCMGLTFKNPLGLAAGLDKDGECWDALGAMGFGSIEIGTVTPRPQPGNDKPRLFRLVDAEGLINRMGFNNLGVDNLVENVKKAHYDGVLGINIGKNKDTPVEQGKDDYLICMEKIYAYAGYIAINISSPNTPGLRTLQYGEALDDLLTAIKNKQNDLQAMHHKYVPIAVKIAPDLSEEELIQVADSLVRHNIDGVIATNTTLDRSLVQGMKNCDQTGGLSGRPLQLKSTEIIRRLSLELNGRLPIIGVGGIDSVIAAREKIAAGASLVQIYSGFIFKGPPLIKEIVTHI
B15: pyrD M159A (protein)
chain: MYYPFVRKALFQLDPERAHEFTFQQLRRITGTPFEALVRQKVPAKPVNCMGLTFKNPLGLAAGLDKDGECIDALGAMGFGSIEIGTVTPRPQPGNDKPRLFRLVDAEGLINRMGFNNLGVDNLVENVKKAHYDGVLGINIGKNKDTPVEQGKDDYLICAEKIYAYAGYIAINISSPNTPGLRTLQYGEALDDLLTAIKNKQNDLQAMHHKYVPIAVKIAPDLSEEELIQVADSLVRHNIDGVIATNTTLDRSLVQGMKNCDQTGGLSGRPLQLKSTEIIRRLSLELNGRLPIIGVGGIDSVIAAREKIAAGASLVQIYSGFIFKGPPLIKEIVTHI
B16: pyrD L227W (protein)
chain: MYYPFVRKALFQLDPERAHEFTFQQLRRITGTPFEALVRQKVPAKPVNCMGLTFKNPLGLAAGLDKDGECIDALGAMGFGSIEIGTVTPRPQPGNDKPRLFRLVDAEGLINRMGFNNLGVDNLVENVKKAHYDGVLGINIGKNKDTPVEQGKDDYLICMEKIYAYAGYIAINISSPNTPGLRTLQYGEALDDLLTAIKNKQNDLQAMHHKYVPIAVKIAPDLSEEEWIQVADSLVRHNIDGVIATNTTLDRSLVQGMKNCDQTGGLSGRPLQLKSTEIIRRLSLELNGRLPIIGVGGIDSVIAAREKIAAGASLVQIYSGFIFKGPPLIKEIVTHI

What follows are proteins tested against Escherichia coli (laboratory strain) (assay: barcode share on antibiotic plates over drug-free plates; higher = less susceptible). Conditions: antibiotic: carbenicillin; 2× MIC (3.1 µg/mL).
Protocol: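 A pool of E. coli strains, each edited to carry one amino-acid change in an essential protein, was grown for 48 h on minimal glucose agar with or without antibiotic; strain barcodes were sequenced; mean of two replicates.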
In the case of B1, the “fold change of barcode share” value is reported as 0.437 ± 0.17. B2 was tested, and the “fold change of barcode share” value was 0.986 ± 0.069. For B3, the “fold change of barcode share” value was 0.66 ± 0.11. With B4 the “fold change of barcode share” value was > 23.6 [active]. With B5 the “fold change of barcode share” value was 0.271 ± 0.045. In the case of B6, the “fold change of barcode share” value is reported as 0.149 ± 0.0047. For B7, the “fold change of barcode share” value was 0.418 ± 0.2. With B8 the “fold change of barcode share” value was 0.35 ± 0.41. For B9, the “fold change of barcode share” value was 0.545 ± 0.25. B10 was tested, and the “fold change of barcode share” value was 0.403 ± 0.053. B11 was tested, and the “fold change of barcode share” value was 0.259 ± 0.098. In the case of B12, the “fold change of barcode share” value is reported as 0.562 ± 0.0077. For B13, the “fold change of barcode share” value was 0.336 ± 0.16. With B14 the “fold change of barcode share” value was 0.351 ± 0.05. For B15, the “fold change of barcode share” value was 0.467 ± 0.031. B16 was tested, and the “fold change of barcode share” value was 0.455 ± 0.021.

Same assay, conditions: antibiotic: gentamicin; 2× MIC (MIC 0.45 µg/mL)
For B1, the “fold change of barcode share” value was under 0.0147. With B2 the “fold change of barcode share” value was 0.0205 ± 0.02. With B3 the “fold change of barcode share” value was 0.0241 ± 0.01. In the case of B5, the “fold change of barcode share” value is reported as 0.163 ± 0.23. B6 was tested, and the “fold change of barcode share” value was 0.0289 ± 0.035. B7 was tested, and the “fold change of barcode share” value was under 0.013. B9 was tested, and the “fold change of barcode share” value was under 0.0171. With B10 the “fold change of barcode share” value was under 0.015. B11 was tested, and the “fold change of barcode share” value was under 0.00851. B12 was tested, and the “fold change of barcode share” value was 0.0167 ± 0.01. B13 was tested, and the “fold change of barcode share” value was under 0.015. For B14, the “fold change of barcode share” value was under 0.00537. In the case of B15, the “fold change of barcode share” value is reported as under 0.00422. With B16 the “fold change of barcode share” value was under 0.015.
